From PubChem BioAssay AID652104 (National Center for Advancing Translational Sciences (NCATS), 2013)
About 7,200 (1.8%) of roughly 410,000 compounds were called active. The shares of active, inactive and inconclusive entries below differ from those in the screen. The call rests on the fitted dose curve; in most records, active means well fitted activation curve with a large enough effect; inconclusive means small, poorly fitted or top-dose-only effect, or another doubt; inactive means no such curve, though single readings can be large or run the other way. Potencies of inconclusive entries are left out as doubtful fits.
Potency means the concentration at half of the fitted maximal effect; tags describe the fitted curve by direction and shape.

Test: qHTS of TDP-43 Inhibitors; further: nearly all actives have a fitted effect of over 50% in size; on growth rescue (activation): % of control where 0% means no effect
Settings: TDP-43 expressing yeast growth rescue, BacTiter-Glo, 24 h; growth rescue (activation): at 46.1 µM (top of the series) unless noted
In short: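 Yeast cells expressing TDP-43 under galactose induction are exposed to compounds for 24 hr at 30 deg C. BacTiter-Glo luminescence measures growth, so protective compounds score as activators.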
For `CCc1ccc(CNC(=O)C2CCN(C(=O)c3ccc(-n4ccc5ccccc54)s3)CC2)cc1`, the Potency was inconclusive [activator, partial curve]. With `Oc1ccc(CNc2ccccc2O)cc1` the Potency was inconclusive [activator, single point]. With `O=C1c2ccccc2C(=O)N1Cc1cc(-c2ccccc2Cl)no1` the Potency was inconclusive [activator, single point]. In the case of `O=C(Nc1ccccc1N1CCCCC1)C1CCN(S(=O)(=O)c2ccccc2C(F)(F)F)CC1`, the “growth rescue (activation)” value is reported as inactive: -14.6%. With `Nc1nc(Nc2ccccc2Br)nc(C(F)(F)F)n1` the Potency was active: 17.8 µM. With `CCOc1ccc(CCNC(=O)Cn2nc(CC)n3c(cc4c(OC)cccc43)c2=O)cc1OCC` the “growth rescue (activation)” value was inactive: 0%. With `N#C/C(=C\c1c(Oc2ccc(F)cc2)nc2ccccn2c1=O)c1nc2ccccc2s1` the “growth rescue (activation)” value was inactive: 20.4%. With `CC1CC(C)CN(c2ccc(-n3cnnn3)cc2[N+](=O)[O-])C1` (stereo not drawn) the Potency was inconclusive [activator, single point]. In the case of `Cc1cc(C)c(C#N)c(SCS(=O)Cc2ccc(Cl)cc2)n1` (stereo not drawn), the Potency is reported as inconclusive [activator, single point]. With `O=C(NCC(=O)N1CCN(S(=O)(=O)c2ccccc2F)CC1)c1ccc2c(c1)OCO2` the “growth rescue (activation)” value was inactive: -12.6%. With `CCOC(=O)N1CCN(Cc2nc3cc(NC(=O)c4ccc([N+](=O)[O-])cc4)ccc3n2C(C)C)CC1` the “growth rescue (activation)” value was inactive: 13.9%. In the case of `COc1ccc(C(=O)O)cc1S(=O)(=O)Nc1cc(C(F)(F)F)ccc1N1CCCCC1`, the Potency is reported as inconclusive [activator, single point]. For `Cc1nc(N2CCN(C(=O)COc3ccccc3)CC2)c2c(C)c(C)sc2n1`, the Potency was active: 15.8 µM. For `CCOC(=O)Cc1cc(=O)n2[nH]c(-c3ccc(C)cc3)cc2n1`, the “growth rescue (activation)” value was inactive: -14.7%. In the case of `CC(C)(C)C(=O)N1CCN(c2nc3ccccc3s2)CC1`, the Potency is reported as inconclusive [activator, partial curve]. For `Cc1ccccc1-c1noc(CNC(=O)COc2ccccc2)n1`, the Potency was inconclusive [activator, single point]. In the case of `Cc1cc(Nc2cccc(C(F)(F)F)c2)nc2ccc(NC(=O)c3cccnc3)cc12`, the Potency is reported as inconclusive [activator, partial curve, poor fit]. With `O=C(Cc1c(O)c2ccccc2[nH]c1=O)NC1CCCCCCC1` the Potency was inconclusive [activator, single point]. In the case of `Cc1cc(-n2c(C)cc(C(=S)N3CCOCC3)c2C)ccc1Br`, the Potency is reported as active: 20 µM. For `CCc1c(C)c(C#N)c2nc3ccccc3n2c1-n1nc(C)cc1C`, the Potency was inconclusive [activator, full curve]. In the case of `Cc1ccccc1Cn1ccc(NC(=O)c2nn3cccnc3c2Cl)n1`, the Potency is reported as inconclusive [activator, single point]. For `CCCCN(CC)C(=O)c1ccc(-c2ccccc2)cc1`, the Potency was inconclusive [activator, partial curve]. For `CC1CCCN(C(=O)c2ccc(-c3ccccc3Cl)o2)C1` (stereo not drawn), the Potency was inconclusive [activator, single point]. In the case of `COc1cc(/C=C/c2nc3cc(Cl)ccc3c(=O)n2-c2ccc(C)cc2C)cc(OC)c1OC`, the “growth rescue (activation)” value is reported as inactive: 16.1%. For `c1ccc(CSc2nnc(-c3ccncc3)o2)cc1`, the Potency was inconclusive [activator, single point]. In the case of `C=CCn1c(-c2oc3nc(-c4ccccc4)cc(-c4ccccc4)c3c2N)n[nH]c1=S`, the Potency is reported as inconclusive [activator, partial curve]. With `Cc1cc(C(=O)NC2CCC(C)CC2)c(C)o1` (stereo not drawn) the Potency was active: 12.6 µM. With `Cc1ccccc1C(=O)Nc1ccc2oc(-c3ccc(Cl)c(Cl)c3)nc2c1` the “growth rescue (activation)” value was inactive: 21.9%. In the case of `Cc1cccc(C(P(=O)(c2ccccc2)c2ccccc2)P(=O)(c2ccccc2)c2ccccc2)n1`, the “growth rescue (activation)” value is reported as inactive: -12.3%. For `CC1=C(C(=O)NCc2ccc3c(c2)OCO3)C2(CCC(C)CC2)OC1=O` (stereo not drawn), the Potency was inconclusive [activator, partial curve]. With `O=C(O)CCCCCCCCc1cn(CCc2c[nH]c3ccccc23)nn1` the Potency was active: 12.6 µM. With `CCOC(=O)c1c(C)n(S(=O)(=O)c2ccc(C)cc2)c2ccc(NS(=O)(=O)c3ccc(C)cc3)cc12` the Potency was inconclusive [activator, full curve]. For `O=C(c1ccc(Oc2cc(Cl)cc(Cl)c2)o1)N1CCCCC1`, the Potency was inconclusive [activator, partial curve]. For `COc1ccc(Nc2ncnc3c2nc2n3CCCC2)cc1Cl`, the Potency was active: 12.6 µM. With `O=C(NCC(c1cccnc1)N1CCc2ccccc21)C(=O)Nc1ccccc1F` (stereo not drawn) the “growth rescue (activation)” value was inactive: 17.2%. For `O=c1c2ccccc2nc2n1CCc1c-2[nH]c2ccccc12`, the Potency was inconclusive [activator, partial curve, poor fit]. With `Cc1ccc(Cn2c(C)c3cnn(CC(=O)N4CCN(c5ccc(F)cc5)CC4)c(=O)c3c2C)cc1` the Potency was active: 15.8 µM. For `O=C(Nc1ccc(S(=O)(=O)N2CCOCC2)cc1)c1ccc(Cl)cc1Cl`, the Potency was inconclusive [activator, partial curve]. In the case of `O=S(=O)(c1ccc(F)cc1)N1CCCC(c2nc(-c3ccc(F)cc3)no2)C1` (stereo not drawn), the Potency is reported as inconclusive [activator, partial curve]. With `CCCOc1ccc(C(C)=O)cc1CSCCC#N` the Potency was inconclusive [activator, single point]. For `CC1Cn2cc(C(=O)Nc3ccccc3C(F)(F)F)c(=O)c3c(Cl)ccc(c32)O1` (stereo not drawn), the Potency was inconclusive [activator, partial curve]. In the case of `O=C(COC(=O)/C=C/c1ccc(Cl)cc1)NC1CCCC1`, the “growth rescue (activation)” value is reported as inactive: 9.42%. With `O=C(Nc1ccccc1N1CCN(C(=O)c2ccccc2)CC1)c1ccccc1Cl` the Potency was inconclusive [activator, single point]. With `CC(=O)c1cc2c(cc1NC(=O)c1ccc(C)cc1)OCCO2` the Potency was inconclusive [activator, partial curve]. In the case of `CCOc1ccc(-n2cc(C(=O)c3cc(Cl)ccc3O)cc(C#N)c2=O)cc1`, the Potency is reported as inconclusive [activator, single point]. For `CCC1CN(C(=O)N2CCC(C(=O)N3CCN(c4ccc(F)cc4)CC3)CC2)c2ccccc2O1` (stereo not drawn), the Potency was inconclusive [activator, single point]. For `CCC(Oc1ccc(C)cc1)C(=O)Nc1ccc(S(=O)(=O)Nc2nccs2)cc1` (stereo not drawn), the Potency was inconclusive [activator, partial curve]. With `Cc1cc(Cl)ccc1-c1nc(NC(C)C)nc2ccsc12` the Potency was active: 35.5 µM. With `C[C@@H]1CN([C@H](C)CO)C(=O)c2cc(Br)cnc2O[C@@H]1CN(C)C(=O)NC1CCCC1` the “growth rescue (activation)” value was inactive: -2.31%. In the case of `CC[C@@H]1CC=C[C@H]2[C@H]1C(=O)N(Cc1ccccc1)[C@H]2c1ccc(C(F)(F)F)cc1`, the Potency is reported as inconclusive [activator, partial curve]. In the case of `O=C(C[C@@H]1C[C@H]2c3cc(NC(=O)NC4CCCCC4)ccc3O[C@H]2[C@H](CO)O1)NC1CCCCC1`, the Potency is reported as inconclusive [activator, full curve]. In the case of `COc1ccc([C@H]2N[C@]3(CCCN(Cc4ccc(C(F)(F)F)cc4)C3=O)[C@H]3C(=O)N(Cc4ccccc4)C(=O)[C@@H]23)cc1`, the Potency is reported as inconclusive [activator, partial curve]. With `O=C(O)c1ccc(NCc2ccc(Br)cc2)cc1` the Potency was active: 3.55 µM. For `COc1ccc(N2CC(C(=O)NCCC3=CCCCC3)CC2=O)c(OC)c1` (stereo not drawn), the Potency was inconclusive [activator, full curve, poor fit]. With `O=C1/C(=C\c2ccc(-c3ccccc3[N+](=O)[O-])o2)C(c2ccccc2)=NN1c1ccccc1` the “growth rescue (activation)” value was inactive: 7.83%. For `COc1ccc2[nH]c3c(c2c1)CCN1C(=O)C(CC(=O)NCC24CC5CC(CC(C5)C2)C4)C[C@H](C(=O)N2CCCCC2)[C@@]31C` (stereo partly drawn), the Potency was inconclusive [activator, single point]. In the case of `Cc1nc2c(OCc3cc(Cl)cc(Cl)c3)cccn2c1N(C)C(=O)CCC1CCCC1`, the Potency is reported as active: 35.5 µM. For `CCOc1cc(C)c(C(C)C)cc1S(=O)(=O)n1ccnc1CC`, the Potency was active: 20 µM. With `COc1ccccc1OCCNC(=O)c1cc(SC)ccc1Cl` the Potency was inconclusive [activator, partial curve]. In the case of `CCOC(=O)c1sc(NC(=O)c2ccccc2OCC)nc1C`, the Potency is reported as inconclusive [activator, partial curve]. In the case of `COc1ccc(/C=N/NC(=O)c2ccn[nH]2)cc1COc1ccc(F)cc1`, the Potency is reported as inconclusive [activator, single point]. With `CC(=O)c1ccc(Oc2ncnc3sccc23)cc1` the Potency was inconclusive [activator, partial curve]. With `Cc1ccc(S(=O)(=O)Nc2cc(C)on2)cc1` the Potency was inconclusive [activator, single point]. For `Cc1ccc(-c2noc(-c3nnn(CC(=O)Nc4cccc(C(F)(F)F)c4)c3N)n2)cc1`, the Potency was inconclusive [activator, partial curve]. With `O=C(CCCN1CCC(O)(c2cccc(C(F)(F)F)c2)CC1)c1ccc(F)cc1` the “growth rescue (activation)” value was inactive: -7.13%. For `O=C(Nc1ccc(Cl)cc1)c1cccc(OC(=S)N2CCOCC2)c1`, the Potency was inconclusive [activator, partial curve]. For `CC1CCCC(NC(=O)CN(C)S(=O)(=O)c2cccc3cccnc23)C1C` (stereo not drawn), the Potency was inconclusive [activator, partial curve, poor fit]. For `O=S1(=O)C[C@@H](O)[C@@H](Nc2ccccc2)C1`, the “growth rescue (activation)” value was inactive: 12.6%.
